Data published in US6828450B2, “Triptycene analogs” (Kansas State University Research Foundation, priority 2000, dated 2004).
Some of these results come from one statement about several compounds together. At least one compound was matched to its structure with a doubt left.

Tested on: L1210 cells
Test: DNA cleavage (intact chromatin precipitation) in L1210 cells
Format: cell-based, murine
Conditions: 7 μM, 24 h; control 5%
Description: FIG. 19. Comparison of the concentration-dependent effects of novel TT analogs and known DNA-damaging anticancer drugs on DNA cleavage in L1210 cells in vitro. […] After lysing the cells in HLB containing 0.2% Triton X-100, the detergent-soluble DNA fragments present in the supernatants and the intact chromatin DNA remaining in the pellets were separated by centrifugation and their radioactivity estimated by LSC. Results are expressed as [cpm in supernatant/cpm in supernatant+pellet]×100 at 24 h. For untreated controls (5.3±0.6% DNA fragmentation; striped area), the supernatant is 741±79 cpm and the pellet is 13,293±1,446 cpm.
FIG. 20. Comparison of the abilities of novel TT analogs to induce DNA cleavage in L1210 cells in vitro. Cells containing prelabeled DNA were incubated at 37° C. for 24 h in the presence or absence (control) of 7 μM concentrations of the indicated compounds. The protocol of the experiment and the determination of the results were identical to those of FIG. 12.
FIG. 22. Irreversibility of the effects of novel TT analogs and known DNA-damaging anticancer drugs on DNA cleavage in L1210 cells in vitro. Cells containing prelabeled DNA were incubated at 37° C. for various periods of time in the presence or absence (control) of 10 μM TT1 or TT2 and 1.6 μM DAU or CPT. The protocol of the experiment and the determination of the results at 24 h were identical to those of FIG. 19, except that the drugs were either maintained in the medium for the whole 24-h period of incubation (open) or removed after the first 3 (striped) and 8 h (closed). After spinning and washing the appropriate samples to remove the drugs, cells were resuspended in 0.5 ml of fresh medium to complete the 24-h period of incubation in the absence of drugs. Vehicle-treated controls were similarly spun and washed at 3 and 8 h. Bars: means±SD (n=3).
Drug-induced DNA cleavage was determined by intact chromatin precipitation, using L1210, HL-60-S, HL-60-RV and HL-60-R8 cells which were prelabeled with 1 μCi of ^3H-thymidine for 2 h at 37° C., washed with 3×1 ml of ice-cold PBS, collected by centrifugation, and resuspended in fresh FCS-containing RPMI 1640 medium at a density of about 1×10^6 cells/0.5 ml for L1210 and 0.5×10^6 cells/0.5 ml for HL cells. Except when otherwise specified, such cells containing prelabeled DNA were then exposed for 24 h to TTs and drugs known to induce DNA fragmentation. After centrifugation at 200×g for 10 min to discard the drugs and wash the cells, the intact cell pellets were lysed for 30 min in 0.5 ml of HLB, centrifuged at 12,000×g for 30 min to collect the supernatants, and resuspended in 0.5 ml of HLB. After another similar centrifugation, the radioactivities in the pooled supernatants (detergent-soluble low molecular weight DNA fragments) and the pellet (intact chromatin DNA) were determined by LSC: % DNA fragmentation=[cpm in supernatant/cpm in supernatant+pellet]×100. Before being counted in 6 ml of Bio-Safe NA, the intact pelleted chromatin was incubated for 2 h at 60° C. in the presence of 0.6 ml of NCS tissue solubilizer (Amersham).

Compound | DNA cleavage (% DNA fragmentation)
O=C1C=CC(=O)C2=C1C1c3ccccc3C2c2ccccc21 [TT7, 9,10-Dihydro-9,10-[1′,2′]benzenoanthracene-1,4-dione] | 31-40%
COC1=CC(=O)C2=C(C1=O)C1c3ccccc3C2c2ccccc21 [TT9, 2-Methoxy-9,10-dihydro-9,10-[1′,2′]benzenoanthracene-1,4-dione] | 31-40%
O=C1C=CC(=O)[C@H]2C3c4ccccc4C(c4ccccc43)[C@@H]12 [TT6, (4aS*,9aR*)-4a,9,9a,10-Tetrahydro-9,10-[1′,2′]benzenoanthracene-1,4-dione] | 14-18%
COC1=CC(=O)C2C3c4ccccc4C(c4ccccc43)C2C1=O (stereo not drawn) [TT8, (4aS*,9aR*)-2-Methoxy-4a,9,9a,10-tetrahydro-9,10-[1′,2′]benzenoanthracene-1,4-dione] | 14-18%
COc1cc(O)c2c(c1O)C1c3ccccc3C2c2c(OC)ccc(OC)c21 (stereo not shown) [TT3, 1,4-Dihydroxy-2,5,8-trimethoxy-9,10-dihydro-9,10-[1′,2′]benzenoanthracene] | 14-18%
COC(=O)C1=CC(=O)[C@H]2C3c4ccccc4C(c4c(OC)ccc(OC)c43)[C@H]2C1=O (relative stereo) [TT10, (4aS*,9aR*)-5,8-Dimethoxy-2-methoxycarbonyl-4a,9,9a,10-tetrahydro-9,10-[1′,2′]benzenoanthracene-1,4-dione] | 14-18%
COC1=CC(=O)C2=C(C1=O)C1c3ccccc3C2c2c(OC)ccc(OC)c21 (stereo not shown) [TT5, 2,5,8-Trimethoxy-9,10-dihydro-9,10-[1′,2′]benzenoanthracene-1,4-dione] | 14-18%
COC1=C(Br)C(=O)C2=C(C1=O)C1C3=C(C(=O)C=CC3=O)C2c2ccccc21 (stereo not shown) [TT13, 2-Bromo-3-methoxy-9,10-dihydro-9,10-[1′,2′]benzenoanthracene-1,4,5,8-tetraone] | 54-57%
9,10-Dihydro-9,10-[1′,2′]benzenoanthracene-1,4,5,8-tetraone [TT1] | 31-40%
COC1=CC(=O)C2=C(C1=O)C1C3=C(C(=O)C=CC3=O)C2c2ccccc21 (stereo not shown) [TT2, 2-Methoxy-9,10-dihydro-9,10-[1′,2′]benzenoanthracene-1,4,5,8-tetraone] | 54-57%
